Laboratory results from the CheMixHub viscosity set.
Where “and” joins values, the source holds several entries; their conditions need not be identical. Identical values can stand only once. ± gives the uncertainty stated by the source. This continues a long series; more values of the same kind are listed elsewhere.

Conditions: 101 kPa

Cc1ccccc1
viscosity (293.15 K): 0.578 ± 0.031 mPa·s
viscosity (298.15 K): 0.5512 ± 0.015 mPa·s and 0.561 ± 0.007 mPa·s and 0.549 ± 0.006 mPa·s
viscosity (308.15 K): 0.488 ± 0.005 mPa·s and 0.503 ± 0.007 mPa·s
viscosity (318.15 K): 0.442 ± 0.005 mPa·s
